Assay results: PubChem BioAssay AID1240 (Sanford-Burnham Center for Chemical Genomics, 2008)
Out of some 50,000 compounds screened, about 800 (1.6%) showed an effect of 50% or more. The list shows a part of the results.

Biological target: Bcl-2-like protein 10 (Homo sapiens) (UniProt Q9HD36)
Assay: Phenotype converters, Bcl-B/TR3 peptide binding displacement, primary biochemical FP (AID 1240);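 also: 0% = Bcl-B with tracer peptide and DMSO and 100% = tracer peptide lacking Bcl-B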
Settings: GST-Bcl-B / FITC-TR3 peptide fluorescence polarization; stronger effect = higher value; compound at 3.75 mg/L

Sequence of UniProt Q9HD36 (Q9HD36 whole entry, looked up): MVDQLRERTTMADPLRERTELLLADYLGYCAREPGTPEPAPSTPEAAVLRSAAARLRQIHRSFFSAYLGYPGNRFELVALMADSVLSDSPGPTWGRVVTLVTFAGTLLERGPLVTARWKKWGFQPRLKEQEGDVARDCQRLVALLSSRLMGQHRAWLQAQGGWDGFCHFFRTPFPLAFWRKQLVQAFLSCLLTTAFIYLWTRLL

| Compound | displacement [%] |
| --- | --- |
| CCN1C(=O)/C(=C\c2ccc(-c3ccc(OC)c(Cl)c3)o2)SC1=S | 16.1 |
| COc1ccc(-c2ccc(/C=C/C(=O)O)o2)cc1 | 0.6 |
| O=C(c1ccc(Cl)cc1)N(c1ccccc1)C1C=CS(=O)(=O)C1 (stereo not given) | -3 |
| O=C1NN(c2ccccc2)C(=O)/C1=C/c1cccc(Cl)c1 | -14 |
| O=C(CCNc1ccc(I)cc1)c1cccs1 | -12.3 |
| CCOc1ccccc1CN(CCc1ccc2c(c1)OCO2)Cc1cc(OC)ccc1OC | -7.2 |
| O=C(Nc1ccc(Cl)c(Cl)c1)c1cc2cc(Br)ccc2oc1=O | -8.9 |
| N#Cc1c(NC(=O)C2c3ccccc3Oc3ccccc32)sc2c1CCCCC2 | 9.4 |
| O=S(=O)(Cc1ccccc1)NCCOc1ccc(Cl)cc1 | -5.2 |
| CC1CCN(Cn2[nH]c(=O)ccc2=O)CC1 | 10.1 |
| Cc1[nH]n(-c2ccccc2)c(=O)c1C=Nc1ccc(Cl)cc1Cl | -4.3 |
| COC(=O)c1ccccc1NC(=O)COc1cccc2ccccc12 | -2.6 |
| Cc1cccc(Cc2cnc(NC(=O)CCCN3C(=O)/C(=C/c4ccccc4)SC3=S)s2)c1 | 6.9 |
| COc1ccc(N=C2NC(=O)/C(=C\C=C\c3ccccc3)S2)cc1 | -1.3 |
| COCCOC(=O)C1=C(C)NC2=C(C(=O)CC(C)(C)C2)C1c1ccc(Cl)cc1Cl (stereo not given) | 1.9 |
| COc1ccc(-c2cc(C(F)(F)F)n3nc(C(=O)N4CCc5ccccc5C4)cc3n2)cc1 | 12.7 |
| COc1ccc(-c2cc(C(=O)Nc3ccccc3C)c3ccccc3n2)cc1 | 11.2 |
| Cc1cc(N2CCN(C3=NCC(C)(C)S3)CC2)n2c(nc3ccccc32)c1C#N | 1.7 |
| O=C(c1cc(F)c(F)cc1Cl)N1CCN(c2ccc([N+](=O)[O-])c3ncccc23)CC1 | 7.8 |
| O=C(Nc1cccc2nsnc12)c1ccc2c(c1)OCCO2 | 12.3 |
| COc1ccc(NS(=O)(=O)c2ccc(OC)c(OC)c2)cc1OC | 8.6 |
| Cc1cc(C)c(C(CC(=NNC(N)=O)c2cccs2)C(C#N)C#N)c(C)c1 (stereo not given) | 4.4 |

| Compound | displacement [%] |
| --- | --- |
| O=C(CSCc1ccccc1)Nc1ccc(Br)cc1C(=O)O | -2.8 |
| O=C(c1cnn2c(-c3ccccc3)cc(-c3ccccc3)nc12)N1CCSCC1 | 11.8 |
| O=C(O)c1ccc2nc3cc(N4CCOCC4)c(N4CCOCC4)cc3nc2c1 | 31 |
| Clc1ccc(CSc2nnc(-c3ccccc3)o2)c(Cl)c1 | -8.9 |
| O=C(Nc1cccc2c1C(=O)c1ccccc1C2=O)c1ccc(S(=O)(=O)N2CCOCC2)cc1 | 27.7 |
| O=Cc1ccc(OCc2ccccc2)cc1 | 3.2 |
| COc1cc(CN2CCN(C3CCCC3)CC2)cc(OC)c1OC | 2.3 |
| C=CCc1cccc(/C=N/NC(=O)c2cc(-c3ccccc3)n[nH]2)c1O | -3.3 |
| CCOC(=O)c1sc2nccc3c2c1N=CN3c1ccccc1 | -2.1 |
| CCOC(=O)c1c(-c2ccc(OCC)cc2)csc1N | 9.4 |
| Cc1nc2sc3c(c2c(=O)n1-n1cccc1)CCCC3 | 15.1 |
| CN1C2=NC(=O)/C(=C/c3ccc([N+](=O)[O-])s3)N2c2ccccc21 | -5.9 |
| Cc1ccc(NC(=O)/C=C/C(=O)c2ccccc2)cc1 | 54.6 |
| CC(C)(C)OC(=O)N1N=C(c2ccc(Cl)cc2)CC1(O)C(F)(F)F (stereo not given) | 7.4 |
| O=C(/C=C/c1ccc2c(c1)OCO2)NC1CC2CCC1C2 (stereo not given) | -4.5 |
| Cc1sc2nc(SCC(=O)NCCO)[nH]c(=O)c2c1C | 0.4 |
| COC(=O)c1ccccc1NC(=O)CN(c1cccc(C(F)(F)F)c1)S(C)(=O)=O | -1.5 |
| CC1=C(C(=O)OCCOc2ccccc2)C(c2ccc(F)cc2)C2=C(CC(C)(C)CC2=O)N1 (stereo not given) | -9 |
| Cc1nc(Nc2nc(C)c3ccccc3n2)[nH]c(=O)c1C | -21.7 |
| COc1ccc(C2CC(=O)C3=C(C2)Nc2ccccc2NC3c2cccc(O)c2)cc1 (stereo not given) | -4.1 |
| Cc1cc2nc(-c3ccc(NC(=O)c4ccc5c(c4)OCCO5)cc3O)oc2cc1C | 21.5 |
| CCP(=O)(c1ccccc1)C(C)(C)O (stereo not given) | 3 |

| Compound | displacement [%] |
| --- | --- |
| N/C(=N\OC(=O)C(c1ccccc1)c1ccccc1)c1ccccc1 | -7.2 |
| CCN(CC)CCCCCOc1cccc(Cl)c1 | 4.8 |
| COc1ccccc1C(=O)Nc1nc(-c2ccccc2)c(C)s1 | -3 |
| Cc1nc(C)c(-c2csc(Nc3cccc(C(=O)O)c3)n2)s1 | 3.5 |
| Cc1cccc(C)c1NC(=O)c1ccc(N(C)S(=O)(=O)c2ccccc2)cc1 | -1.2 |
| O=C(Nc1ccc(N2CCOCC2)cc1)c1cc(Br)ccc1Cl | 4.5 |
| O=C(NC1CCCCC1)N(Cc1ccccc1)Cc1ccco1 | -9.3 |
| CCOC(=O)c1c(NC(=O)c2ccccc2Cl)sc2c1CCN(C(=O)OCC)C2 | 1.4 |
| COc1ccc(OCC(=O)N2c3ccccc3CCc3ccccc32)cc1 | 12.1 |
| CN(C)c1ccc(/C=C/c2[nH]c(=O)[nH]c(=O)c2[N+](=O)[O-])cc1 | -4.1 |
| O=S(CC(O)COc1ccc(Cl)cc1)c1ccccn1 (stereo not given) | 4.8 |
| O=C(O)C(Cc1ccccc1)N1C(=O)/C(=C/c2cccc(Br)c2)SC1=S (stereo not given) | 16.6 |
| CC(NC(=O)c1ccc(F)cc1)C1CC1 (stereo not given) | 4.6 |
| O=C1CC(c2ccccc2)CC2=C1C(c1ccc(Cl)c([N+](=O)[O-])c1)Nc1ccccc1N2 (stereo not given) | -3.7 |
| CC(=O)N1c2ccccc2NC2=C(C(=O)CC(C)(C)C2)C1CC1CC=C(C)C1(C)C (stereo not given) | 2.5 |
| O=C(Nc1nc2ccccc2n1Cc1ccccc1)c1ccccc1 | -10.2 |
| CCN(CC)c1ccc(C2Nc3ccccc3NC3=C2C(=O)CC(c2ccccc2)C3)cc1 (stereo not given) | -4 |
| COc1cc(OC)cc(C(=O)Nc2c(C)cc(Br)cc2C)c1 | 12.1 |
| CCOc1ccc(NC(=O)C2=C(C)NC(=O)NC2c2ccc(C)cc2)cc1 (stereo not given) | 1 |
| COc1ccc(CNC(=O)c2cnn3c(C(F)(F)F)cc(-c4ccco4)nc23)cc1 | 3.7 |
| COc1ccc(OC)c(/C=C2/SC(=S)N(C)C2=O)c1 | -4.8 |
| CCC(=O)Nc1ccc(NC(=O)c2ccc3ccccc3c2)cc1 | 8.5 |

| Compound | displacement [%] |
| --- | --- |
| CC1(CC(=O)N/N=C/c2cc(Br)c(O)cc2O)OCCO1 | -13.2 |
| O=C(Nc1sc2c(c1C(=O)Nc1ccccc1)CCC2)c1ccc([N+](=O)[O-])cc1 | -0.4 |
| O=C(COc1ccc(Cl)cc1)NNC(=O)C(c1ccccc1)c1ccccc1 | -4.8 |
| COc1ccccc1NC(=O)c1cccc2c(Br)cccc12 | -5.4 |
| CCN(CC)c1ccc(/C=C2\C(=O)c3ccccc3C(=O)\C2=C(/O)c2ccccc2)cc1 | 8 |
| CCOC(=O)c1c(NC(=O)C2(C)CC2(Br)Br)sc(C)c1-c1ccccc1 (stereo not given) | -1.9 |
| C=CCOc1ccc(/C=C2\C(=O)NC(C)=C2C(=O)OC)cc1 | 14.5 |
| COc1ccc(Cl)cc1N(CC(=O)N1CCC(C)CC1)S(=O)(=O)c1ccc(C)c([N+](=O)[O-])c1 | -4.2 |
| O=C1C(c2ccccc2)=C(O)c2ccccc21 | 18.4 |
| COC(=O)CN1C(=O)/C(=C\c2ccc(C)cc2)SC1=S | 11.8 |
| Fc1cccc(CN2CCN(C3CCCC3)CC2)c1 | -12.6 |
| CC1(C)Cc2c(sc3nc(Nc4ccccc4)n(N)c(=O)c23)CO1 | -6.9 |
| O=C1S/C(=C/c2ccccc2)C(=O)N1CNc1ccc(I)cc1 | -27.3 |
| COc1ccc(-n2cnnn2)c(OC)c1 | -3.3 |
| CN1C(=O)NC(=O)/C(=C\c2cc(Cl)c(OCc3ccc(F)cc3)c(Cl)c2)C1=O | -8.8 |
| O=C1N=C(N2CCCC2)S/C1=C\c1cccc(Br)c1 | 2.1 |
| CC1CC(Nc2ccccc2)c2ccccc2N1C(=O)/C=C/c1ccco1 (stereo not given) | -4 |
| Cc1nc2ccccc2n1CC(O)COc1ccc(Br)cc1 (stereo not given) | -14.3 |
| Cc1cc(C)nc(/N=C(\N)Nc2ccc(Cl)cc2C(=O)c2ccccc2)n1 | 10.3 |
| O=C1C(=O)N(Cc2cccnc2)C(c2ccccc2)/C1=C(\O)c1ccccc1 (stereo not given) | -14.2 |
| O=C(Cc1ccc([N+](=O)[O-])cc1)NNC(=O)c1ccccc1 | -7.2 |
| CC(C)(C)C1(O)CC(C(=O)O)(C(C)(C)C)OC1=O (stereo not given) | 7.4 |

| Compound | displacement [%] |
| --- | --- |
| COc1cccc(NC(=O)CN(CCc2ccccc2)S(=O)(=O)c2ccccc2)c1 | -0.9 |
| COC(=O)c1ccc(NC(=O)c2ccc(C(=O)Nc3ccc(C(=O)OC)cc3)cc2)cc1 | 1.2 |
| NC(=O)c1ccccc1N=Cc1cc([N+](=O)[O-])ccc1O | -11 |
| O=C1/C(=C/c2ccc(-c3cc(Cl)ccc3Cl)o2)SC(=S)N1Cc1ccco1 | 14.1 |
| O=C(O)CCCCCN1C(=O)/C(=C/c2ccc(O)c(O)c2)SC1=S | -107 |
| CCc1cc(=O)oc2cc(OCc3cccc(C)c3)ccc12 | 2.5 |
| O=[N+]([O-])c1cc([N+](=O)[O-])c2cccnc2c1Sc1nc2ccccc2s1 | 2.8 |
| Cc1ccc(NC(=O)COc2ccc3ccccc3c2)cc1Cl | -13.1 |
| CC(C)c1ccc(OCCOc2ncnc3ccccc23)cc1 | 15 |
| O=C(Nc1ccc2ccccc2c1)c1ccc2c(c1)C(=O)N(N1C(=O)c3ccccc3C1=O)C2=O | 14.6 |
| O=C1C=CC(=O)N1c1ccc([N+](=O)[O-])cc1Br | 9.4 |
| COC(=O)c1c(-c2cccc(C)c2)csc1N | 2.8 |
| O=[N+]([O-])c1ccc(COc2ccccc2/C=N/Nc2nc3ccccc3s2)cc1 | -2.1 |
| COC(=O)c1ccc(C(=O)Nc2cc(Cl)ccc2Cl)cc1NC(=O)c1ccccc1C | 5.6 |
| CC1(C)CC(Cc2ccccc2)(C(CN)CO)CCO1 (stereo not given) | -6.7 |
| CCc1ccc2oc(-c3cccc(NC(=O)c4cccc(C)c4)c3)nc2c1 | -1.3 |
| Cc1cccc(OCCCN2CCCC2)c1 | -6.5 |
| O=C(N/N=C/c1ccc[nH]1)c1ccccn1 | -11.5 |
| Cc1cccc(NC(=O)CCCN2C(=O)c3cccc4cccc(c34)C2=O)n1 | 0.6 |
| Nc1nnc(/C=C/c2ccccc2Cl)s1 | 0.8 |
| CCOc1c(Br)cc(/C=C2/C(=O)N(c3ccc(Cl)c(C(=O)O)c3)N=C2C)cc1OC | 10.1 |
| O=C(NC=C(Cl)Cl)c1ccc(Cl)cc1 | 13.5 |
